± gives the standard deviation of the averaged measurements. Laboratory Escherichia coli strains with one amino-acid change in an essential protein, pooled on minimal glucose agar with carbenicillin or gentamicin at twice the control MIC (plus kanamycin and chloramphenicol for the plasmids), 48 h. Fold change of barcode share against drug-free plates; higher = less susceptible. Active = above 20 in both replicates (the paper's putatively resistant). '<' = one read or none on drug, '>' = one read or none on a drug-free plate. Shares are relative, so most strains fall below 1 when a few take over. Listed are strains with at least 15 reads on both drug-free plates, and hits; most hits rest on fewer reference reads. Replicate rank correlation about 0.5. Edits are read from barcodes.
Biological target: Escherichia coli (laboratory strain)
Assay: barcode share on antibiotic plates over drug-free plates; higher = less susceptible
Description: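 A pool of E. coli strains, each edited to carry one amino-acid change in an essential protein, was grown for 48 h on minimal glucose agar with or without antibiotic; strain barcodes were sequenced; mean of two replicates.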

[1] = antibiotic: carbenicillin, 2× MIC (3.1 µg/mL)
[2] = antibiotic: gentamicin, 2× MIC (MIC 0.45 µg/mL)

| Protein | fold change of barcode share [1] | fold change of barcode share [2] |
| --- | --- | --- |
| trpC L404Q (protein) MMQTVLAKIVADKAIWVEARKQQQPLASFQNEVQPSTRHFYDALQGARTAFILECKKASPSKGVIRDDFDPARIAAIYKHYASAISVLTDEKYFQGSFNFLPIVSQIAPQPILCKDFIIDPYQIYLARYYQADACLLMLSVLDDDQYRQLAAVAHSLEMGVLTEVSNEEEQERAIALGAKVVGINNRDLRDLSIDLNRTRELAPKLGHNVTVISESGINTYAQVRELSHFANGFLIGSALMAHDDLHAAVRRVLLGENKVCGLTRGQDAKAAYDAGAIYGGLIFVATSPRCVNVEQAQEVMAAAPLQYVGVFRNHDIADVVDKAKVLSLAAVQLHGNEEQLYIDTLREALPAHVAIWKALSVGETLPAREFQHVDKYVLDNGQGGSGQRFDWSLLNGQSLGNVQLAGGLGADNCVEAAQTGCAGLDFNSAVESQPGIKDARLLASVFQTLRAY | 0.98 ± 0.17 | 0.0129 ± 0.013 |
| can I116Q (protein) MKDIDTLISNNALWSKMLVEEDPGFFEKLAQAQKPRFLWIGCSDSRVPAERLTGLEPGELFVHRNVANLVIHTDLNCLSVVQYAVDVLEVEHIIICGHYGCGGVQAAVENPELGLQNNWLLHIRDIWFKHSSLLGEMPQERRLDTLCELNVMEQVYNLGHSTIMQSAWKRGQKVTIHGWAYGIHDGLLRDLDVTATNRETLEQRYRHGISNLKLKHANHK | 0.742 ± 0.33 | 0.0142 ± 0.0087 |
| trpC L404D (protein) MMQTVLAKIVADKAIWVEARKQQQPLASFQNEVQPSTRHFYDALQGARTAFILECKKASPSKGVIRDDFDPARIAAIYKHYASAISVLTDEKYFQGSFNFLPIVSQIAPQPILCKDFIIDPYQIYLARYYQADACLLMLSVLDDDQYRQLAAVAHSLEMGVLTEVSNEEEQERAIALGAKVVGINNRDLRDLSIDLNRTRELAPKLGHNVTVISESGINTYAQVRELSHFANGFLIGSALMAHDDLHAAVRRVLLGENKVCGLTRGQDAKAAYDAGAIYGGLIFVATSPRCVNVEQAQEVMAAAPLQYVGVFRNHDIADVVDKAKVLSLAAVQLHGNEEQLYIDTLREALPAHVAIWKALSVGETLPAREFQHVDKYVLDNGQGGSGQRFDWSLLNGQSLGNVDLAGGLGADNCVEAAQTGCAGLDFNSAVESQPGIKDARLLASVFQTLRAY | 0.857 ± 0.34 | 0.0271 ± 0.024 |
| trpC I236A (protein) MMQTVLAKIVADKAIWVEARKQQQPLASFQNEVQPSTRHFYDALQGARTAFILECKKASPSKGVIRDDFDPARIAAIYKHYASAISVLTDEKYFQGSFNFLPIVSQIAPQPILCKDFIIDPYQIYLARYYQADACLLMLSVLDDDQYRQLAAVAHSLEMGVLTEVSNEEEQERAIALGAKVVGINNRDLRDLSIDLNRTRELAPKLGHNVTVISESGINTYAQVRELSHFANGFLAGSALMAHDDLHAAVRRVLLGENKVCGLTRGQDAKAAYDAGAIYGGLIFVATSPRCVNVEQAQEVMAAAPLQYVGVFRNHDIADVVDKAKVLSLAAVQLHGNEEQLYIDTLREALPAHVAIWKALSVGETLPAREFQHVDKYVLDNGQGGSGQRFDWSLLNGQSLGNVLLAGGLGADNCVEAAQTGCAGLDFNSAVESQPGIKDARLLASVFQTLRAY | 0.669 ± 0.19 |  |
| trpC I236Q (protein) MMQTVLAKIVADKAIWVEARKQQQPLASFQNEVQPSTRHFYDALQGARTAFILECKKASPSKGVIRDDFDPARIAAIYKHYASAISVLTDEKYFQGSFNFLPIVSQIAPQPILCKDFIIDPYQIYLARYYQADACLLMLSVLDDDQYRQLAAVAHSLEMGVLTEVSNEEEQERAIALGAKVVGINNRDLRDLSIDLNRTRELAPKLGHNVTVISESGINTYAQVRELSHFANGFLQGSALMAHDDLHAAVRRVLLGENKVCGLTRGQDAKAAYDAGAIYGGLIFVATSPRCVNVEQAQEVMAAAPLQYVGVFRNHDIADVVDKAKVLSLAAVQLHGNEEQLYIDTLREALPAHVAIWKALSVGETLPAREFQHVDKYVLDNGQGGSGQRFDWSLLNGQSLGNVLLAGGLGADNCVEAAQTGCAGLDFNSAVESQPGIKDARLLASVFQTLRAY | 0.69 ± 0.2 |  |
| trpC I236P (protein) MMQTVLAKIVADKAIWVEARKQQQPLASFQNEVQPSTRHFYDALQGARTAFILECKKASPSKGVIRDDFDPARIAAIYKHYASAISVLTDEKYFQGSFNFLPIVSQIAPQPILCKDFIIDPYQIYLARYYQADACLLMLSVLDDDQYRQLAAVAHSLEMGVLTEVSNEEEQERAIALGAKVVGINNRDLRDLSIDLNRTRELAPKLGHNVTVISESGINTYAQVRELSHFANGFLPGSALMAHDDLHAAVRRVLLGENKVCGLTRGQDAKAAYDAGAIYGGLIFVATSPRCVNVEQAQEVMAAAPLQYVGVFRNHDIADVVDKAKVLSLAAVQLHGNEEQLYIDTLREALPAHVAIWKALSVGETLPAREFQHVDKYVLDNGQGGSGQRFDWSLLNGQSLGNVLLAGGLGADNCVEAAQTGCAGLDFNSAVESQPGIKDARLLASVFQTLRAY | > 23.8 [active] |  |
| can I116P (protein) MKDIDTLISNNALWSKMLVEEDPGFFEKLAQAQKPRFLWIGCSDSRVPAERLTGLEPGELFVHRNVANLVIHTDLNCLSVVQYAVDVLEVEHIIICGHYGCGGVQAAVENPELGLPNNWLLHIRDIWFKHSSLLGEMPQERRLDTLCELNVMEQVYNLGHSTIMQSAWKRGQKVTIHGWAYGIHDGLLRDLDVTATNRETLEQRYRHGISNLKLKHANHK | 0.68 ± 0.6 | < 0.00708 |
| trpC L137P (protein) MMQTVLAKIVADKAIWVEARKQQQPLASFQNEVQPSTRHFYDALQGARTAFILECKKASPSKGVIRDDFDPARIAAIYKHYASAISVLTDEKYFQGSFNFLPIVSQIAPQPILCKDFIIDPYQIYLARYYQADACLPMLSVLDDDQYRQLAAVAHSLEMGVLTEVSNEEEQERAIALGAKVVGINNRDLRDLSIDLNRTRELAPKLGHNVTVISESGINTYAQVRELSHFANGFLIGSALMAHDDLHAAVRRVLLGENKVCGLTRGQDAKAAYDAGAIYGGLIFVATSPRCVNVEQAQEVMAAAPLQYVGVFRNHDIADVVDKAKVLSLAAVQLHGNEEQLYIDTLREALPAHVAIWKALSVGETLPAREFQHVDKYVLDNGQGGSGQRFDWSLLNGQSLGNVLLAGGLGADNCVEAAQTGCAGLDFNSAVESQPGIKDARLLASVFQTLRAY | > 22.1 [active] |  |
| trpC L235W (protein) MMQTVLAKIVADKAIWVEARKQQQPLASFQNEVQPSTRHFYDALQGARTAFILECKKASPSKGVIRDDFDPARIAAIYKHYASAISVLTDEKYFQGSFNFLPIVSQIAPQPILCKDFIIDPYQIYLARYYQADACLLMLSVLDDDQYRQLAAVAHSLEMGVLTEVSNEEEQERAIALGAKVVGINNRDLRDLSIDLNRTRELAPKLGHNVTVISESGINTYAQVRELSHFANGFWIGSALMAHDDLHAAVRRVLLGENKVCGLTRGQDAKAAYDAGAIYGGLIFVATSPRCVNVEQAQEVMAAAPLQYVGVFRNHDIADVVDKAKVLSLAAVQLHGNEEQLYIDTLREALPAHVAIWKALSVGETLPAREFQHVDKYVLDNGQGGSGQRFDWSLLNGQSLGNVLLAGGLGADNCVEAAQTGCAGLDFNSAVESQPGIKDARLLASVFQTLRAY | > 27.8 [active] |  |
| can M152A (protein) MKDIDTLISNNALWSKMLVEEDPGFFEKLAQAQKPRFLWIGCSDSRVPAERLTGLEPGELFVHRNVANLVIHTDLNCLSVVQYAVDVLEVEHIIICGHYGCGGVQAAVENPELGLINNWLLHIRDIWFKHSSLLGEMPQERRLDTLCELNVAEQVYNLGHSTIMQSAWKRGQKVTIHGWAYGIHDGLLRDLDVTATNRETLEQRYRHGISNLKLKHANHK | 0.333 ± 0.11 | 0.0113 ± 0.011 |
| can L69A (protein) MKDIDTLISNNALWSKMLVEEDPGFFEKLAQAQKPRFLWIGCSDSRVPAERLTGLEPGELFVHRNVANAVIHTDLNCLSVVQYAVDVLEVEHIIICGHYGCGGVQAAVENPELGLINNWLLHIRDIWFKHSSLLGEMPQERRLDTLCELNVMEQVYNLGHSTIMQSAWKRGQKVTIHGWAYGIHDGLLRDLDVTATNRETLEQRYRHGISNLKLKHANHK | 0.78 ± 0.46 | < 0.00989 |
| carA I110A (protein) MIKSALLVLEDGTQFHGRAIGATGSAVGEVVFNTSMTGYQEILTDPSYSRQIVTLTYPHIGNVGTNDADEESSQVHAQGLVIRDLPLIASNFRNTEDLSSYLKRHNIVAAADIDTRKLTRLLREKGAQNGCIIAGDNPDAALALEKARAFPGLNGMDLAKEVTTAEAYSWTQGSWTLTGGLPEAKKEDELPFHVVAYDFGAKRNILRMLVDRGCRLTIVPAQTSAEDVLKMNPDGIFLSNGPGDPAPCDYAITAIQKFLETDIPVFGICLGHQLLALASGAKTVKMKFGHHGGNHPVKDVEKNVVMITAQNHGFAVDEATLPANLRVTHKSLFDGTLQGIHRTDKPAFSFQGHPEASPGPHDAAPLFDHFIELIEQYRKTAK | 0.115 ± 0.055 |  |
| carA L216A (protein) MIKSALLVLEDGTQFHGRAIGATGSAVGEVVFNTSMTGYQEILTDPSYSRQIVTLTYPHIGNVGTNDADEESSQVHAQGLVIRDLPLIASNFRNTEDLSSYLKRHNIVAIADIDTRKLTRLLREKGAQNGCIIAGDNPDAALALEKARAFPGLNGMDLAKEVTTAEAYSWTQGSWTLTGGLPEAKKEDELPFHVVAYDFGAKRNILRMLVDRGCRATIVPAQTSAEDVLKMNPDGIFLSNGPGDPAPCDYAITAIQKFLETDIPVFGICLGHQLLALASGAKTVKMKFGHHGGNHPVKDVEKNVVMITAQNHGFAVDEATLPANLRVTHKSLFDGTLQGIHRTDKPAFSFQGHPEASPGPHDAAPLFDHFIELIEQYRKTAK | 0.3 ± 0.092 | 0.00457 ± 0.0028 |
